Data on 32 sequences can be found in paper PMC12820563, “FoxP3 forms a head-to-head dimer in vivo and stabilizes its multimerization on adjacent microsatellites”.

This is one part of the list.

The target in this assay is T1, MBP-FoxP1dN (Mus musculus, UniProt P58462 326-579).
T1 sequence: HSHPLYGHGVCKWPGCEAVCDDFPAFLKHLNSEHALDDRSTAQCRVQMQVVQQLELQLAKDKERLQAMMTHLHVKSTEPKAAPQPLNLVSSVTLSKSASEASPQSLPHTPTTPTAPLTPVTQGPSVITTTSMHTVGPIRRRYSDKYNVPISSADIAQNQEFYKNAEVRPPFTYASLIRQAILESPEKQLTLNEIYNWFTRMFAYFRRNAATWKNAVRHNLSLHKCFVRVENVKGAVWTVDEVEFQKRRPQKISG
In words: PD-seq (MBP pull-down with sequencing); 20 mM Tris-HCl pH 7.5, 100 mM NaCl, 1.5 mM MgCl2, 0.4 uM protein, 0.1 uM dsDNA library, 30 min, room temperature, amylose pull-down; high values mean tight binding. The conditions noted are these: protein: recombinant; tags: His6-MBP; chain copies: 2; dsDNA, one strand shown. In outline:
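Mouse FoxP3 or FoxP1 fragment lacking the N-terminus, His6-MBP-tagged and expressed in E. coli, was incubated at 0.4 µM with 0.1 µM Klenow-filled degenerate double-stranded DNA library for 30 min at room temperature in Tris pH 7.5 buffer with NaCl and MgCl2. Complexes captured on amylose resin were washed three times and their DNA sequenced on Illumina. Binding is reads-per-million enrichment of pull-down over input, replicates pooled.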
“GATGATTGTTCTCCCAGCTGATGAATTGTGTCACTCGAGTAAACAAATTTTCCTAATCTTTCTGTTCAAGCGCCATCTAC”: the binding signal was 1.18 RPM ratio (pull-down/input).
To “GATGATTGTTCTCCCAGCTGATGAATTAATGCGGTCGAGTAAACAAATTTTCCTAATCTTTCTGTTCAAGCGCCATCTAC” belongs 1.2 RPM ratio (pull-down/input).
Under “GATGATTGTTCTCCCAGCTGATGAATTGCTTGTGTCGAGTAAACAAATTTTCCTAATCTTTCTGTTCAAGCGCCATCTAC” stands 1.33 RPM ratio (pull-down/input); under “GATGATTGTTCTCCCAGCTGATGAATTCAGCACCTCGAGTAAACAAATTTTCCTAATCTTTCTGTTCAAGCGCCATCTAC”, 0.855 RPM ratio (pull-down/input); under “GATGATTGTTCTCCCAGCTGATGAATTCTTACTTTCGAGTAAACAAATTTTCCTAATCTTTCTGTTCAAGCGCCATCTAC”, 0.935 RPM ratio (pull-down/input).
Under “GATGATTGTTCTCCCAGCTGATGAATTAAGAGATTCGAGTAAACAAATTTTCCTAATCTTTCTGTTCAAGCGCCATCTAC” stands 0.921 RPM ratio (pull-down/input); under “GATGATTGTTCTCCCAGCTGATGAATTCATCCCATCGAGTAAACAAATTTTCCTAATCTTTCTGTTCAAGCGCCATCTAC”, 0.935 RPM ratio (pull-down/input).
Regarding “GATGATTGTTCTCCCAGCTGATGAATTCATCATATCGAGTAAACAAATTTTCCTAATCTTTCTGTTCAAGCGCCATCTAC”, the binding signal was 1.08 RPM ratio (pull-down/input).
On to “GATGATTGTTCTCCCAGCTGATGAATTGTGTGAATCGAGTAAACAAATTTTCCTAATCTTTCTGTTCAAGCGCCATCTAC”, for which the binding signal was 1.08 RPM ratio (pull-down/input).
To “GATGATTGTTCTCCCAGCTGATGAATTACCATCCTCGAGTAAACAAATTTTCCTAATCTTTCTGTTCAAGCGCCATCTAC” belongs 0.917 RPM ratio (pull-down/input); to “GATGATTGTTCTCCCAGCTGATGAATTCAAATGGTCGAGTAAACAAATTTTCCTAATCTTTCTGTTCAAGCGCCATCTAC”, 0.889 RPM ratio (pull-down/input); to “GATGATTGTTCTCCCAGCTGATGAATTGCTAAATTCGAGTAAACAAATTTTCCTAATCTTTCTGTTCAAGCGCCATCTAC”, 1.33 RPM ratio (pull-down/input).
To “GATGATTGTTCTCCCAGCTGATGAATTATGCCTGTCGAGTAAACAAATTTTCCTAATCTTTCTGTTCAAGCGCCATCTAC” belongs 0.97 RPM ratio (pull-down/input).
To “GATGATTGTTCTCCCAGCTGATGAATTTTAGTACTCGAGTAAACAAATTTTCCTAATCTTTCTGTTCAAGCGCCATCTAC” belongs 0.868 RPM ratio (pull-down/input); to “GATGATTGTTCTCCCAGCTGATGAATTCAAGGCATCGAGTAAACAAATTTTCCTAATCTTTCTGTTCAAGCGCCATCTAC”, 1.06 RPM ratio (pull-down/input).
“GATGATTGTTCTCCCAGCTGATGAATTAATGGCGTCGAGTAAACAAATTTTCCTAATCTTTCTGTTCAAGCGCCATCTAC”: the binding signal was 1.04 RPM ratio (pull-down/input).
“GATGATTGTTCTCCCAGCTGATGAATTCGGCGTGTCGAGTAAACAAATTTTCCTAATCTTTCTGTTCAAGCGCCATCTAC”: the binding signal is 0.891 RPM ratio (pull-down/input).
Take “GATGATTGTTCTCCCAGCTGATGAATTTTCAAAGTCGAGTAAACAAATTTTCCTAATCTTTCTGTTCAAGCGCCATCTAC”: the binding signal was 0.935 RPM ratio (pull-down/input).
Under “GATGATTGTTCTCCCAGCTGATGAATTGAGAGAGTCGAGTAAACAAATTTTCCTAATCTTTCTGTTCAAGCGCCATCTAC” stands 0.8 RPM ratio (pull-down/input); under “GATGATTGTTCTCCCAGCTGATGAATTTACCACTTCGAGTAAACAAATTTTCCTAATCTTTCTGTTCAAGCGCCATCTAC”, 1.41 RPM ratio (pull-down/input).
Under “GATGATTGTTCTCCCAGCTGATGAATTCGGCGTCTCGAGTAAACAAATTTTCCTAATCTTTCTGTTCAAGCGCCATCTAC” stands 0.796 RPM ratio (pull-down/input); under “GATGATTGTTCTCCCAGCTGATGAATTGTCACGATCGAGTAAACAAATTTTCCTAATCTTTCTGTTCAAGCGCCATCTAC”, 1.07 RPM ratio (pull-down/input).
Under “GATGATTGTTCTCCCAGCTGATGAATTAGACAATTCGAGTAAACAAATTTTCCTAATCTTTCTGTTCAAGCGCCATCTAC” stands 1.12 RPM ratio (pull-down/input); under “GATGATTGTTCTCCCAGCTGATGAATTCCACAGATCGAGTAAACAAATTTTCCTAATCTTTCTGTTCAAGCGCCATCTAC”, 0.826 RPM ratio (pull-down/input); under “GATGATTGTTCTCCCAGCTGATGAATTATTATCATCGAGTAAACAAATTTTCCTAATCTTTCTGTTCAAGCGCCATCTAC”, 1.38 RPM ratio (pull-down/input).
For “GATGATTGTTCTCCCAGCTGATGAATTATGCCCATCGAGTAAACAAATTTTCCTAATCTTTCTGTTCAAGCGCCATCTAC”, the binding signal was 0.962 RPM ratio (pull-down/input).
On to “GATGATTGTTCTCCCAGCTGATGAATTACTTGCGTCGAGTAAACAAATTTTCCTAATCTTTCTGTTCAAGCGCCATCTAC”, for which the binding signal is 1.15 RPM ratio (pull-down/input).
Under “GATGATTGTTCTCCCAGCTGATGAATTGACATAATCGAGTAAACAAATTTTCCTAATCTTTCTGTTCAAGCGCCATCTAC” stands 1.63 RPM ratio (pull-down/input); under “GATGATTGTTCTCCCAGCTGATGAATTAGCGCGTTCGAGTAAACAAATTTTCCTAATCTTTCTGTTCAAGCGCCATCTAC”, 0.932 RPM ratio (pull-down/input).
Under “GATGATTGTTCTCCCAGCTGATGAATTAAAACACTCGAGTAAACAAATTTTCCTAATCTTTCTGTTCAAGCGCCATCTAC” stands 1.13 RPM ratio (pull-down/input).
To “GATGATTGTTCTCCCAGCTGATGAATTAGGAGACTCGAGTAAACAAATTTTCCTAATCTTTCTGTTCAAGCGCCATCTAC” belongs 0.806 RPM ratio (pull-down/input); to “GATGATTGTTCTCCCAGCTGATGAATTCTCCGCGTCGAGTAAACAAATTTTCCTAATCTTTCTGTTCAAGCGCCATCTAC”, 0.971 RPM ratio (pull-down/input).
